Assay results: the supplement of paper PMC4166925
± gives the standard deviation of the averaged measurements. Whole data set: some 33,000 sequences, median “E-score (dimensionless, -0.5 to 0.5)” near -0.049, cut for the highest 2% near 0.37. This is one part of the list.

These sequences were tested on T1, PmTbr T-box DNA-binding domain (GST fusion) (assay: PBM E-score of 8-mer (E-score (dimensionless, -0.5 to 0.5)); Tbr is Tbrain of the sea star Patiria miniata (Pm) or the sea urchin Strongylocentrotus purpuratus (Sp); higher = stronger binding preference; most listed sequences are background and not binding sites). Settings: the construct has about 5 more residues each side.
T1 sequence: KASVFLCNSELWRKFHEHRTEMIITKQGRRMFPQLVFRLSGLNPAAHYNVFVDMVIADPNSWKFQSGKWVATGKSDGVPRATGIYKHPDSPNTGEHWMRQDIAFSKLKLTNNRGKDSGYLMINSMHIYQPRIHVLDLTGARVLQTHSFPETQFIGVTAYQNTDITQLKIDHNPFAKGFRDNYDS
Method: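 Universal protein-binding microarray (Agilent AMADID 016060, 60-bp probes with a 35-bp variable region) incubated with 200 nM GST-fused Patiria miniata Tbr T-box DNA-binding domain (residues 272-466) in PBS pH 7.5. Scored for every ungapped 8-mer (given with its reverse complement) by the Universal PBM Analysis Suite as E-score (modified Wilcoxon-Mann-Whitney enrichment, range -0.5 to 0.5; >0.45 counts as bound) and Z-score of median probe intensity. Two replicate arrays (datasets 1 and 2).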
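Note: 200 nM protein in PBS on universal arrays averaged over duplicate arrays.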

Sequence	PBM E-score of 8-mer
GCTGTGCA	-0.0156 ± 0.043
CCCCCCGC	-0.114 ± 0.13
GGCAGGCC	-0.204 ± 0.077
GGCCAGCA	-0.0262 ± 0.027
CAAAGGTG	0.436 ± 0.018
CCATCAGC	-0.137 ± 0.0027
CCCAATCC	-0.0746 ± 0.016
GGAGACAA	0.063 ± 0.03
AATCCTAT	-0.119 ± 0.064
CCAGGTTC	-0.015 ± 0.0087
GCGACCCA	-0.109 ± 0.047
CTTTCCTC	-0.122 ± 0.018
CCCACAAC	0.196 ± 0.032
CGGTGGGA	-0.0368 ± 0.0018
CACTCGCA	0.318 ± 0.012
AAAACTCT	-0.0344 ± 0.046
ATAGGCCA	-0.33306 ± 4.2e-05
AGCGTGCA	-0.00975 ± 0.023
ATTCACTG	0.00421 ± 0.029
CTAATGGC	0.092 ± 0.063
GATACTGC	-0.104 ± 0.071
CACCGGGG	-0.158 ± 0.01
AGACGTCC	-0.187 ± 0.038
ATCTGAAA	-0.135 ± 0.059
CCCTGTAG	-0.302 ± 0.034

Sequence	PBM E-score of 8-mer
GACAAGTA	0.177 ± 0.024
ACAAACCG	0.0582 ± 0.00067
CGCTCGAA	-0.13 ± 0.011
AGGTCCTG	-0.0692 ± 0.1
AAACCACA	0.0722 ± 0.0013
AGAGCTTC	-0.284 ± 0.026
ACGAAACG	0.16 ± 0.01
TAGATAAA	-0.273 ± 0.045
CACTCAAC	0.149 ± 0.028
GGTGGATA	0.0315 ± 0.0046
GACTAACC	-0.0255 ± 0.038
GCTGCTTA	-0.109 ± 0.026
ACATAGTG	0.226 ± 0.0083
CCGTTTTA	-0.084 ± 0.026
CCAATTGG	-0.0183 ± 0.04
CAACCCCC	-0.14 ± 0.066
CGGCCCGA	-0.102 ± 0.04
CAAGTCCA	-0.092 ± 0.041
CGAATAAG	-0.0682 ± 0.055
CAACACGA	0.161 ± 0.015
AACGCAAG	-0.00147 ± 0.0068
GTATCGTA	0.0426 ± 0.048
ACCACGCC	0.1061 ± 0.00038
GCCTACGA	-0.122 ± 0.043
TCGACCGA	-0.133 ± 0.0071

Sequence	PBM E-score of 8-mer
AAGCAAGA	-0.023 ± 0.0061
ACCATTGA	0.0999 ± 0.094
CTTATAGA	-0.0803 ± 0.038
TAAGTCAA	-0.0607 ± 0.085
GACAATCC	0.106 ± 0.018
ACCGGGCG	0.0522 ± 0.0094
CAATTGGA	-0.22 ± 0.066
ATGGTTTC	-0.0592 ± 0.02
ATGCTAGC	0.0815 ± 0.0024
AGTACTGA	-0.0156 ± 0.036
CAGACCGC	-0.197 ± 0.0056
ACTATCAG	0.116 ± 0.002
AATCAGTC	-0.204 ± 0.028
CACATTCA	0.181 ± 0.0026
AGATCTCG	0.00287 ± 0.029
CCAAAAAC	-0.0619 ± 0.039
AGATTAGA	-0.248 ± 0.023
AAGTTCGT	-0.0611 ± 0.036
GAGCTGCA	0.0561 ± 0.04
CCGTCATC	-0.122 ± 0.038
ATGATTCA	-0.162 ± 0.029
ATGACCTA	-0.182 ± 0.018
CGCGCCCC	0.186 ± 0.011
ACTAATCT	-0.0659 ± 0.026
ACACGATC	0.167 ± 0.035

Sequence	PBM E-score of 8-mer
AGGCTGGA	-0.0369 ± 0.0082
CATCCGCC	-0.105 ± 0.032
CTTTATAC	-0.119 ± 0.091
CAGACTCC	-0.211 ± 0.064
ACAAGTAA	-0.0192 ± 0.036
CGCCAGAC	0.0964 ± 0.0054
GAATACCC	-0.145 ± 0.004
CTGCGCTA	-0.0165 ± 0.0019
GCCGGAGA	-0.0819 ± 0.037
CCATGACG	-0.187 ± 0.065
AGACGAGC	-0.164 ± 0.074
GCCTCCAA	-0.0538 ± 0.053
TGAAATAA	0.131 ± 0.11
CTAAAATC	0.073 ± 0.065
GCTTTTAA	-0.134 ± 0.11
CCGCATCG	-0.0426 ± 0.024
TACGAGAA	-0.145 ± 0.1
TCGCGAAA	0.409 ± 0.025
GTGGTACA	-0.0592 ± 0.028
AACAGGAG	-0.00971 ± 0.013
CGCGTGAC	0.342 ± 0.0057
CGACATCC	0.0836 ± 0.0083
AGATTTCC	-0.061 ± 0.062
AAGGCAAA	-0.179 ± 0.039
ACGTTCTA	-0.0564 ± 0.067

Sequence	PBM E-score of 8-mer
ACCGCTTG	-0.00853 ± 0.018
CAACGGGA	-0.126 ± 0.042
AGTAGAAT	-0.161 ± 0.023
CTGGTCTA	-0.138 ± 0.044
GCCGACTA	-0.000295 ± 0.0049
CACTGGCC	-0.114 ± 0.058
CTCCGCAA	-0.0946 ± 0.021
AGAAGATA	-0.136 ± 0.0022
CGTTTATA	-0.286 ± 0.029
CCATTAAA	-0.239 ± 0.0035
CTTCCGGC	0.0279 ± 0.046
CCTCGAGG	0.0461 ± 0.12
CGATACTA	-0.0985 ± 0.048
CACTATCG	0.177 ± 0.031
TGATGGCA	0.0656 ± 0.037
AGCTTCGG	-0.159 ± 0.077
ATGATTGC	-0.199 ± 0.02
AGGGGTGC	0.201 ± 0.011
CATCTGAG	-0.0604 ± 0.046
GATAAGCA	-0.00515 ± 0.047
ACGCAGCA	-0.065 ± 0.017
AGGCACAC	0.245 ± 0.049
ACGTGACC	0.157 ± 0.02
GTGAGAGA	0.319 ± 0.015
CAAAGACC	-0.23 ± 0.05

Sequence	PBM E-score of 8-mer
CACCCATA	0.227 ± 0.0097
GATGGACA	-0.206 ± 0.033
GAATCGGC	-0.0727 ± 0.071
CCAGGTTA	-0.154 ± 0.091
GTTCAAAA	-0.0917 ± 0.091
ACACCTCA	0.47047 ± 0.00026
ACCGGCTC	-0.121 ± 0.0038
ACCCTGAG	0.11 ± 0.021
ATAACTAG	0.0348 ± 0.041
GACGCACA	0.0749 ± 0.018
CTATGATC	-0.133 ± 0.0091
TCCGAAAA	-0.00383 ± 0.062
ACTCTCGG	-0.105 ± 0.025
GGATATGA	-0.0273 ± 0.071
CGGAAGAG	0.0337 ± 0.088
ACCTACGG	-0.00262 ± 0.025
ACAAACTC	0.153 ± 0.037
AAAAATAC	-0.0485 ± 0.085
CTCTCGAA	0.135 ± 0.056
GTGAACTA	0.188 ± 0.012
TGCCGCCA	0.0857 ± 0.11
GAAGGAAC	-0.147 ± 0.01
AAGTCGGA	-0.3 ± 0.0088
AATCAGAT	-0.0246 ± 0.083
CGTATACG	-0.151 ± 0.11

Sequence	PBM E-score of 8-mer
AACTAGAC	-0.259 ± 0.088
AGCTCGAG	-0.0268 ± 0.023
GAGCGCAC	-0.0637 ± 0.099
GTCATATA	0.0467 ± 0.0023
GAATTTCC	-0.0723 ± 0.029
ATCAGGCC	-0.343 ± 0.031
CAGAGGCG	0.219 ± 0.05
TAGTTACA	-0.0997 ± 0.035
AAGTGAAT	-0.019 ± 0.075
CAGTCTTC	-0.134 ± 0.082
CACCCGGC	0.19 ± 0.0082
GTCCGGAC	-0.133 ± 0.021
CTCGCCAG	0.11 ± 0.0016
AGAATGAC	-0.0207 ± 0.017
GTTCCAAC	-0.0165 ± 0.035
ACTCGCTG	0.156 ± 0.024
ACCTCAGG	0.0765 ± 0.031
ACCAATCG	0.134 ± 0.0052
CACTCGAA	0.199 ± 0.035
AGGGAGGG	-0.269 ± 0.053
GGCTATCA	-0.0533 ± 0.075
CTCTACCA	-0.0803 ± 0.032
